# Read-outs that look alike come from different tables or passages of the source.
# Legend:
# [1] = tested on: mycoplasma isolates of chicken origin; test: MIC, serial microdilution, mycoplasma isolates of chicken origin; format: cell-based
# Procedure: (§1) The antimicrobial effect of vainemulin hydrochloride is determined by means of a standard serial microdilution technique in comparison to tylosin (Tylan soluble) and tiamulin hydrogen fumarate.
# (§2) 12.8 mg of the test compound are dissolved in 100 ml of distilled water to obtain a stock solution which is stored at -20° C. until used. Mycoplasma gallisepticum reference strain used are X95, S6 Holland, S6 Bench (England), MS-16 (Japan), MK-7 (Japan) and 1226, and various fresh field isolates.
# (§3) The antibiotic-sensitivity of the strains is examined using a modified microbroth dilution procedure (Stipkovits et al., Vet. Microbiol. 15 [1987] 65-70). Testing medium is added (100 μl) to all the wells of microtitration plates, using doubling dilutions of antibiotics. The inoculum (100 μl) contains 10^5 cfu/ml. The plates are sealed with sellotape and incubated at 37° C. over a period of 3 days. The lowest concentration of the antibiotic completely preventing colour change of the media at the third day reading is the minimal inhibitory concentration (MIC). The wells without colour range are checked for viability of mycoplasmas by plating them on agar medium. All Mycoplasma strains are propagated in 10 ml of medium B (Ern.o slashed., H. and Stipkovits, L., Acta Vet. Scand. 14 [1973] 436-449). After incubation at 37° C. until early log phase of growth, 1 ml aliquots of culture are dispensed in tubes as seed cultures and stored at -20° C. The glucose fermenting Mycoplasma strains are tested in modified medium Bg supplemented with 1% glucose (pH 7.8), the arginine hydrolysing strains in medium Ba (Ern.o slashed., H. and Stipkovits, L., supra, 450-463) containing 1% arginine (pH 7.3) and the glucose- and arginine-negative strains in medium B including 1% triphenyltetrazolium chloride.
# (§4) The average MIC values for different strain groups and antibiotics taking into consideration dilutions are calculated.
# S. hyodysenteriae = test: MIC determination by agar dilution, 10 strains from porcine faeces; format: cell-based, Serpulina hyodysenteriae; details: Brachyspira hyodysenteriae
# Procedure: Minimum inhibitory concentrations (MICs) are determined against 10 strains of S. hyodysenteriae isolated from porcine faeces, by the agar dilution method. NCTC (National Collection of Type Cultures) strains or reference strains are used as controls in all MIC tests. The agar medium for S. hyodysenteriae consists of BAB2 (Unipath CM271) containing 7% whole defibrinated sterile sheep blood. All antimicrobial agents are tested in doubling dilutions. Prepared antibiotic dilutions are added to an appropriate volume of MH agar, previously cooled to 50° C., mixed and 20 ml volumes poured. All S. hyodysenteriae incubations are performed in an anaerobic work station at 37° C. (+/-0.5° C.) (Don Whitley Scientific) which provides a strict anaerobic atmosphere comprising 80% nitrogen, 10% hydrogen and 10% carbon dioxide. All other incubations are performed at 37° C. All strains are incubated in an […] atmosphere at 37° C. for 24 hours. The numbers of the organisms are adjusted to an optical density (OD) equivalent to 1×10^8 colony forming units (cfu) per ml, using MH broth as a blank. The antibiotic containing plates are inoculated in duplicate using a multipoint inoculator (Denley Instruments) which delivers a plate inoculum of approximately 1 μl giving an inoculum of 10^4 -10^5 cfu per spot for all strains (Amon, J. Antimicrob. Chemother. 21 [1988] 701-710; Ericsson et al., Acta Pathol. Microbiol. et Immunol. Scand. 217 [1971] (B) Suppl., 1-90). Control plates are incubated under the same conditions as the test plates. The MICs are read after 24 and 48 hours, the latter being the definitive reading. The MIC is defined as the lowest concentration of antibiotic on which there is no growth, disregarding a single colony or a faint haze caused by the inoculum (National Committee for Clinical Laboratory Standards [1989], Antimicrobial Susceptibility Testing, NCCLC Publications SC3, Villanova, Pa., USA).
# Mycoplasma gallisepticum [2] = test: Challenge study, prevention of Mycoplasma gallisepticum infection; format: in vivo, male broiler chickens; details: tylosin 0.05%
# Procedure: Groups of male broiler chickens are infected with a virulent strain of Mycoplasma gallisepticum (MG) and each group medicated respectively with one of the following: valnemulin (concentrations of 0.00312, 0.00625, 0.0125 and 0.025%), tiamulin (0.00625, 0.0125 and 0.025%), and tylosin (0.05%). Infection is effected on day 2 by injection of 0.1 ml of Mycoplasma gallisepticum culture containing approximately 10^6 cfu of viable organisms into each lung (Jordan, F. T. W., The Veterinary Record 127 [1990] 502) and medication is commenced within an hour of infection and continued for three consecutive days. There is also an infected untreated group and an uninfected group.
# Mycoplasma gallisepticum [3] = test: MIC, serial microdilution, Mycoplasma gallisepticum reference strains; format: cell-based
# Procedure: as §1, §2, §3, §4
# Serpulina hyodysenteriae = test: MIC determination on agar, 10 S. hyodysenteriae strains; format: cell-based
# Mycoplasma gallisepticum [4] = test: Challenge study, treatment of Mycoplasma gallisepticum infection; format: in vivo, male broiler chicks
# Excerpt: Groups of male broiler chicks are infected with a virulent strain of Mycoplasma gallisepticum (MG) and each group medicated respectively with valnemulin at a concentration of 0.0125%, 0.025%, 0.05%, tiamulin at the same concentration, tylosin 0.05% and a […], spectinomycin combination (Linco-Spectin) 0.083%. There is also one infected group left untreated and an uninfected group. The chicks are infected at two days of age by the injection of 3.4×10^5 organisms into each lung. Medication in the drinking water is commenced 24 hours later for three successive days except for Linco-Spectin with which treatment was continued for 5 days.
smiles,measurement,setting,value
CC[C@H]1OC(=O)C[C@@H](O)[C@H](C)[C@@H](O[C@@H]2O[C@H](C)[C@@H](O[C@H]3C[C@@](C)(O)[C@@H](O)[C@H](C)O3)[C@H](N(C)C)[C@H]2O)[C@@H](CC=O)C[C@@H](C)C(=O)/C=C/C(C)=C/[C@@H]1CO[C@@H]1O[C@H](C)[C@@H](O)[C@@H](OC)[C@H]1OC [tylosin],MIC,"[1]; isolate 20002, read-out: MIC",0.25 µg/mL
same,MIC,"[1]; isolate 20006, read-out: MIC",0.25 µg/mL
same,MIC,"[1]; isolate 20174, read-out: MIC",0.25 µg/mL
same,MIC,"[1]; isolate 20175, read-out: MIC",2 µg/mL
same,MIC,"[1]; isolate 20176, read-out: MIC",2 µg/mL
same,MIC,"[1]; isolate 20177, read-out: MIC",1 µg/mL
same,MIC,"[1]; isolate 20178, read-out: MIC",2 µg/mL
same,MIC,"[1]; isolate 20224, read-out: MIC",4 µg/mL
same,MIC,"[1]; isolate 20312, read-out: MIC",4 µg/mL
same,MIC,"[1]; isolate 20321, read-out: MIC",0.5 µg/mL
same,MIC,"[1]; isolate 20472, read-out: MIC",16 µg/mL
same,MIC,"[1]; isolate 20473, read-out: MIC",32 µg/mL
same,MIC,"[1]; isolate 20474, read-out: MIC",16 µg/mL
same,MIC,"[1]; isolate 20475, read-out: MIC",32 µg/mL
same,MIC,"[1]; read-out: MIC range (sensitivity), avian field isolates",0.06 to 32 µg/mL
same,MIC,S. hyodysenteriae,200 µg/mL
same,serological results,Mycoplasma gallisepticum [2],relatively high proportion of positive reactors
same,prevention of clinical signs and mortality,"Mycoplasma gallisepticum [2]; valnemulin 0.0125 and 0.025%, tiamulin three doses",equally satisfactory
same,lesions (frequency and severity),"Mycoplasma gallisepticum [2]; valnemulin 0.0125 and 0.025%, tiamulin",fewer chicks and were less severe
same,MIC,Mycoplasma gallisepticum [3]; Mycoplasmoides gallisepticum,0.0312 µg/mL
same,MIC,Mycoplasma gallisepticum [3]; strain 1226,0.0312 µg/mL
same,MIC,Mycoplasma gallisepticum [3]; strain Holland,0.0312 µg/mL
same,MIC,Mycoplasma gallisepticum [3]; strain MK-7,0.0312 µg/mL
same,MIC,Mycoplasma gallisepticum [3]; strain MS-16,0.0312 µg/mL
same,number of strains with MIC 128 μg/ml,Serpulina hyodysenteriae,1
same,number of strains with MIC >128 μg/ml,Serpulina hyodysenteriae,9
same,lesions,Mycoplasma gallisepticum [4]; tiamulin and tylosin,only a few
same,recovery of Mycoplasma at 23 days,"Mycoplasma gallisepticum [4]; valnemulin 3 groups, tylosin 0.05%",not recovered

# — patent US6130250A, “Veterinary use of a pleuromutilin derivative” (priority 1996, dated 2000)
